# Data published in the supplement of paper PMC8728848.
# Some of the results follow.
# B1: SSL (Salmo salar) (protein)
# chain: TGAKGAEEGVVPAETRNQCPTGWFQFGSRCFMFVETARSWPLAERHCVSLGANLASVHSSADDQFLQAIAGCKTGAFSTTWIGGFDAVQDRLWFWSDGSEFDYQNWAKGEPNNSGGREPCIVINWGDEYRWNDIKCGNSFPSVCSKRICEIQKN
# Legend:
# Assay in all cases: glycan array binding signal (z-score within array); higher = stronger binding
# Conditions in all cases: glycan notation: IUPAC condensed, linker removed
# Gal(a1-3)GalNAc = target: Gal(a1-3)GalNAc
# How it was run: (§1)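 From the Consortium for Functional Glycomics database, 3228 arrays were curated, keeping only those whose protein sequence was available. Binding is given as a within-array Z-score averaged across arrays sharing a protein sequence and across linkers. Negative Z-scores can be read as non-binding.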
# [1] = target: Gal(a1-3)[Gal(a1-4)]Gal(b1-4)GlcNAc
# How it was run: as §1
# [2] = target: Gal(a1-4)Gal(b1-3)GlcNAc(b1-2)Man(a1-3)[Gal(a1-4)Gal(b1-3)GlcNAc(b1-2)Man(a1-6)]Man(b1-4)GlcNAc(b1-4)GlcNAc
# How it was run: as §1
# Gal(a1-4)Gal(b1-4)Glc = target: Gal(a1-4)Gal(b1-4)Glc
# How it was run: as §1
# Gal(a1-4)Gal(b1-4)GlcNAc = target: Gal(a1-4)Gal(b1-4)GlcNAc
# How it was run: as §1
# [3] = target: Gal(a1-4)Gal(b1-4)GlcNAc(b1-2)Man(a1-3)[Gal(a1-4)Gal(b1-4)GlcNAc(b1-2)Man(a1-6)]Man(b1-4)GlcNAc(b1-4)GlcNAc
# How it was run: as §1
# [4] = target: Gal(a1-4)Gal(b1-4)GlcNAc(b1-3)Gal(b1-4)Glc
# How it was run: as §1
# Gal(a1-4)GlcNAc = target: Gal(a1-4)GlcNAc
# How it was run: as §1
# Gal(a1-6)Glc = target: Gal(a1-6)Glc
# How it was run: as §1
# Gal(b1-2)Gal = target: Gal(b1-2)Gal
# How it was run: as §1
# Gal(b1-3)Gal = target: Gal(b1-3)Gal
# How it was run: as §1
# Gal(b1-3)Gal(b1-4)GlcNAc = target: Gal(b1-3)Gal(b1-4)GlcNAc
# How it was run: as §1
# [5] = target: Gal(b1-3)Gal(b1-4)GlcNAc(b1-2)Man(a1-3)[Gal(b1-3)Gal(b1-4)GlcNAc(b1-2)Man(a1-6)]Man(b1-4)GlcNAc(b1-4)GlcNAc
# How it was run: as §1
# Gal(b1-3)GalNAc = target: Gal(b1-3)GalNAc
# How it was run: as §1
# [6] = target: Gal(b1-3)GalNAc(a1-3)[Fuc(a1-2)]Gal(b1-4)Glc
# How it was run: as §1
# [7] = target: Gal(b1-3)GalNAc(a1-3)[Fuc(a1-2)]Gal(b1-4)GlcNAc
# How it was run: as §1
# [8] = target: Gal(b1-3)GalNAc(b1-3)Gal(a1-4)Gal(b1-4)Glc
# How it was run: as §1
# [9] = target: Gal(b1-3)GalNAc(b1-4)Gal(b1-4)Glc
# How it was run: as §1
# [10] = target: Gal(b1-3)GalNAc(b1-4)[Neu5Ac(a2-3)]Gal(b1-4)Glc
# How it was run: as §1
# Gal(b1-3)GlcNAc = target: Gal(b1-3)GlcNAc
# How it was run: as §1
# [11] = target: Gal(b1-3)GlcNAc(a1-6)Gal(b1-4)GlcNAc
# How it was run: as §1
# [12] = target: Gal(b1-3)GlcNAc(b1-2)Man(a1-3)[Gal(b1-3)GlcNAc(b1-2)Man(a1-6)]Man(b1-4)GlcNAc(b1-4)GlcNAc
# How it was run: as §1
# [13] = target: Gal(b1-3)GlcNAc(b1-2)Man(a1-3)[Gal(b1-3)GlcNAc(b1-2)Man(a1-6)]Man(b1-4)GlcNAc(b1-4)[Fuc(a1-6)]GlcNAc
# How it was run: as §1
# [14] = target: Gal(b1-3)GlcNAc(b1-3)Gal(b1-3)GlcNAc
# How it was run: as §1
# [15] = target: Gal(b1-3)GlcNAc(b1-3)Gal(b1-4)Glc
# How it was run: as §1
# [16] = target: Gal(b1-3)GlcNAc(b1-3)Gal(b1-4)GlcNAc
# How it was run: as §1
# [17] = target: Gal(b1-3)GlcNAc(b1-3)Gal(b1-4)GlcNAc(b1-6)[Gal(b1-3)GlcNAc(b1-3)]Gal(b1-4)Glc
# How it was run: as §1
# [18] = target: Gal(b1-3)GlcNAc(b1-3)Gal(b1-4)[Fuc(a1-3)]GlcNAc(b1-6)[Gal(b1-3)GlcNAc(b1-3)]Gal(b1-4)Glc
# How it was run: as §1
# [19] = target: Gal(b1-3)GlcNAc(b1-3)GalNAc
# How it was run: as §1
# [20] = target: Gal(b1-3)GlcNAc(b1-6)Gal(b1-4)GlcNAc
# How it was run: as §1
# [21] = target: Gal(b1-3)[Fuc(a1-4)]GlcNAc
# How it was run: as §1
# [22] = target: Gal(b1-3)[Fuc(a1-4)]GlcNAc(b1-2)Man(a1-3)[Gal(b1-3)[Fuc(a1-4)]GlcNAc(b1-2)Man(a1-6)]Man(b1-4)GlcNAc(b1-4)GlcNAc
# How it was run: as §1
# [23] = target: Gal(b1-3)[Fuc(a1-4)]GlcNAc(b1-2)Man(a1-3)[Gal(b1-3)[Fuc(a1-4)]GlcNAc(b1-2)Man(a1-6)]Man(b1-4)GlcNAc(b1-4)[Fuc(a1-6)]GlcNAc
# How it was run: as §1
# [24] = target: Gal(b1-3)[Fuc(a1-4)]GlcNAc(b1-3)Gal(b1-3)[Fuc(a1-4)]GlcNAc
# How it was run: as §1
# [25] = target: Gal(b1-3)[Fuc(a1-4)]GlcNAc(b1-3)Gal(b1-4)GlcNAc
# How it was run: as §1
# [26] = target: Gal(b1-3)[Fuc(a1-4)]GlcNAc(b1-3)Gal(b1-4)[Fuc(a1-3)]GlcNAc
# How it was run: as §1
# [27] = target: Gal(b1-3)[GlcNAc(b1-6)]GalNAc
# How it was run: as §1
# [28] = target: Gal(b1-3)[Neu5Ac(a2-6)]GalNAc
# How it was run: as §1
# [29] = target: Gal(b1-3)[Neu5Ac(a2-6)]GlcNAc(b1-6)Gal(b1-4)Glc
# How it was run: as §1
# [30] = target: Gal(b1-3)[Neu5Ac(b2-6)]GalNAc
# How it was run: as §1
# [31] = target: Gal(b1-4)GalNAc(a1-3)[Fuc(a1-2)]Gal(b1-4)GlcNAc
# How it was run: as §1
# [32] = target: Gal(b1-4)GalNAc(b1-3)[Fuc(a1-2)]Gal(b1-4)GlcNAc
# How it was run: as §1
# Gal(b1-4)Glc = target: Gal(b1-4)Glc
# How it was run: as §1
# Gal(b1-4)Glc6S = target: Gal(b1-4)Glc6S
# How it was run: as §1
# Gal(b1-4)GlcNAc = target: Gal(b1-4)GlcNAc
# How it was run: as §1
binder,measurement,setting,value
B1,glycan array binding signal (z-score),Gal(a1-3)GalNAc,-0.164
same,glycan array binding signal (z-score),[1],-0.169
same,glycan array binding signal (z-score),[2],-0.176
same,glycan array binding signal (z-score),Gal(a1-4)Gal(b1-4)Glc,-0.17
same,glycan array binding signal (z-score),Gal(a1-4)Gal(b1-4)GlcNAc,-0.166
same,glycan array binding signal (z-score),[3],-0.138
same,glycan array binding signal (z-score),[4],-0.132
same,glycan array binding signal (z-score),Gal(a1-4)GlcNAc,-0.159
same,glycan array binding signal (z-score),Gal(a1-6)Glc,-0.164
same,glycan array binding signal (z-score),Gal(b1-2)Gal,-0.112
same,glycan array binding signal (z-score),Gal(b1-3)Gal,-0.165
same,glycan array binding signal (z-score),Gal(b1-3)Gal(b1-4)GlcNAc,-0.163
same,glycan array binding signal (z-score),[5],-0.181
same,glycan array binding signal (z-score),Gal(b1-3)GalNAc,-0.162
same,glycan array binding signal (z-score),[6],-0.165
same,glycan array binding signal (z-score),[7],-0.171
same,glycan array binding signal (z-score),[8],-0.11
same,glycan array binding signal (z-score),[9],-0.17
same,glycan array binding signal (z-score),[10],-0.142
same,glycan array binding signal (z-score),Gal(b1-3)GlcNAc,-0.157
same,glycan array binding signal (z-score),[11],-0.181
same,glycan array binding signal (z-score),[12],-0.171
same,glycan array binding signal (z-score),[13],-0.159
same,glycan array binding signal (z-score),[14],-0.179
same,glycan array binding signal (z-score),[15],-0.167
same,glycan array binding signal (z-score),[16],-0.183
same,glycan array binding signal (z-score),[17],0.451
same,glycan array binding signal (z-score),[18],-0.183
same,glycan array binding signal (z-score),[19],-0.165
same,glycan array binding signal (z-score),[20],-0.163
same,glycan array binding signal (z-score),[21],-0.145
same,glycan array binding signal (z-score),[22],-0.118
same,glycan array binding signal (z-score),[23],-0.123
same,glycan array binding signal (z-score),[24],-0.151
same,glycan array binding signal (z-score),[25],-0.167
same,glycan array binding signal (z-score),[26],-0.17
same,glycan array binding signal (z-score),[27],-0.16
same,glycan array binding signal (z-score),[28],-0.18
same,glycan array binding signal (z-score),[29],-0.167
same,glycan array binding signal (z-score),[30],-0.175
same,glycan array binding signal (z-score),[31],-0.174
same,glycan array binding signal (z-score),[32],-0.178
same,glycan array binding signal (z-score),Gal(b1-4)Glc,-0.172
same,glycan array binding signal (z-score),Gal(b1-4)Glc6S,-0.134
same,glycan array binding signal (z-score),Gal(b1-4)GlcNAc,-0.154
